Measurements taken from PubChem BioAssay AID504339 (National Center for Advancing Translational Sciences (NCATS), 2011).
Among all 390,000 compounds or so, about 17,000 (4.4%) were called active. This list was built around the results that the source calls inconclusive (neither active nor inactive); the mix of calls is not that of the screen. Calls follow the shape of the dose curve; as a rule, active = well fitted inhibition curve with a large enough effect; inconclusive = small, poorly fitted or top-dose-only effect; inactive = no such curve, though single readings can be large or run the other way. Potencies beside an inconclusive call are fits to weak or partial responses and may not hold up.

What follows are compounds tested against Lysine-specific demethylase 4A (Homo sapiens) (UniProt O75164) (assay: qHTS Assay for Inhibitors of JMJD2A-Tudor Domain). Details: AlphaScreen JMJD2A-Tudor / H3K4me3 peptide binding; activity change, negative = inhibition: at 114 µM (top of the series).
% is scaled to controls: 0 for no effect and ±100 for the full control effect; potency is read from the fitted curve at half-maximal effect; tags tell the direction and shape of the fitted curve.
Also: nearly all actives have a fitted effect of over 50% in size.

Chain of UniProt O75164 (O75164 whole entry, looked up, the tested form may be a part): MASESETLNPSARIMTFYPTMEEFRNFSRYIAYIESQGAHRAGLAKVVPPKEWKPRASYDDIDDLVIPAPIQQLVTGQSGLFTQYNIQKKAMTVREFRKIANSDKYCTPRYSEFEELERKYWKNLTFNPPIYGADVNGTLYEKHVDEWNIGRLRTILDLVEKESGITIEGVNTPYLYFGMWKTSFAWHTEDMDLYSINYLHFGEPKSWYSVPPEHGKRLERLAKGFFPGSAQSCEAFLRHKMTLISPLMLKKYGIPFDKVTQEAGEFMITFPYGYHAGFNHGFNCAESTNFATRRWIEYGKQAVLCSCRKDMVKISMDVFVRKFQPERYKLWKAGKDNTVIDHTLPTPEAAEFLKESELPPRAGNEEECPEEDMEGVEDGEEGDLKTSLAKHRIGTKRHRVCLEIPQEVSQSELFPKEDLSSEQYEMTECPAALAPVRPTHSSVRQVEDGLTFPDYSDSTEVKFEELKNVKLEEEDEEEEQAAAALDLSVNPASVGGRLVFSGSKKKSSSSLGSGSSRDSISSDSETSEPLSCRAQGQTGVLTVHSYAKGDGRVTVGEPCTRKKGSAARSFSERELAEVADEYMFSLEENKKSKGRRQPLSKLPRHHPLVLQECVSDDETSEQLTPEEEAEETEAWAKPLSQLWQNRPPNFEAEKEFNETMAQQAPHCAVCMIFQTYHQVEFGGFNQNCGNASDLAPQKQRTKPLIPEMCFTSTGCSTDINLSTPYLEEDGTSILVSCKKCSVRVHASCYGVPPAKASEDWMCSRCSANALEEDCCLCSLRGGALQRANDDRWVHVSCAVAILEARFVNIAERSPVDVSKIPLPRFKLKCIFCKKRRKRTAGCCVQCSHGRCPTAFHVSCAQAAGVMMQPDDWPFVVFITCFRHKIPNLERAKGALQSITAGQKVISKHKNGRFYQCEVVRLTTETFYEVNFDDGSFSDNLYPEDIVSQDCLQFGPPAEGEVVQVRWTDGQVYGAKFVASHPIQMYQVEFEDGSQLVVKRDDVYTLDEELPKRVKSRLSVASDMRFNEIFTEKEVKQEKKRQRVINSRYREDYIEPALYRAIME

Compound	Potency	activity change, negative = inhibition
CCC(=O)OCC(=O)Nc1cc(C)c(C)cc1[N+](=O)[O-]	inconclusive: 28.2 µM [inhibitor, partial curve]	
COc1ccc(C2CC(c3cccs3)=Nc3ccccc3S2)cc1 (stereo unspecified)	inconclusive: 11.2 µM [inhibitor, full curve, poor fit]	
CCOC(=O)c1c(NC(=O)CSc2nnc(-c3cccnc3)n2Cc2ccco2)sc(C)c1C	inconclusive: 56.2 µM [inhibitor, partial curve]	
N#CC1=CN(Cc2ccccc2)C=C(/C=N/Nc2ccccc2)C1	inconclusive: 89.1 µM [inhibitor, partial curve]	
CC(C)Oc1ccc(C(=O)Nc2ncn[nH]2)cc1	inconclusive: 15.8 µM [inhibitor, partial curve, poor fit]	
C=CCc1cccc2cc(C(=O)Nc3ccc(CC(=O)O)cc3)c(=O)oc12		inactive: -12% [at 11.4 µM]
COc1ccc(CCNc2nc(-c3ccccn3)cs2)cc1OC	inconclusive: 50.1 µM [inhibitor, partial curve, poor fit]	
CCN(C[C@H]1N[C@@](C)(C(=O)OC)[C@H]2C(=O)N(C)C(=O)[C@@H]12)S(=O)(=O)c1ccc(OC)cc1		inactive: -13.7%
CCOC(=O)c1c(NC(=O)COC(=O)CCOc2ccc(OCC)cc2)sc(C(=O)N(C)C)c1C	inconclusive: 50.1 µM [inhibitor, partial curve]	
COc1ccc(Br)cc1/C=N/NC(=O)c1nc(-c2ccccc2)n2c1CCCCC2	inconclusive: 44.7 µM [inhibitor, partial curve, poor fit]	
CCOc1ccc(-c2nnc(SCC(=O)NC(C)(C)C)nc2-c2ccc(OCC)c(OC)c2)cc1OC	inconclusive: 79.4 µM [inhibitor, single point]	
CC(C)CCNC(=O)c1ccc2c(c1)NC(=O)C(CS(=O)(=O)Cc1cccc(Br)c1)N2 (stereo unspecified)	inconclusive: 89.1 µM [inhibitor, single point]	
CSc1cccc(NC(=O)c2nnn(CC(=O)Nc3cc(C)cc(C)c3)c2N)c1	active: 14.1 µM	
COc1ccc(NC(=O)CSc2sc3c(O)cc(=O)[nH]c3c2C#N)c(OC)c1	inconclusive: 5.01 µM [inhibitor, full curve, poor fit]	
COCCNC(=S)N/N=C(\C)c1ccc(C)c([N+](=O)[O-])c1	inconclusive: 63.1 µM [inhibitor, partial curve, poor fit]	
C=C(C)Cn1c(-c2ccncc2)n[nH]c1=S	active: 50.1 µM	
COCCN1Cc2c(sc(C)c2C)N(C(=O)c2ccccc2)C1		inactive: 11% [at 57.1 µM]
COc1ccc(-c2ncncc2-c2csc(C)n2)c(O)c1OC	inconclusive: 89.1 µM [inhibitor, single point]	
CCOC(=O)C1=C(CSc2nc3c(cc2C#N)CCC3)OC(N)=C(C#N)C1c1ccccc1 (stereo unspecified)	active: 25.1 µM	
COc1ccc(-n2nnnc2SCC(=O)c2ccc(O)c(O)c2)cc1	inconclusive: 10 µM [inhibitor, full curve]	
O=C(COc1ccccc1F)Nc1ccc(-c2nc3ccccc3s2)cc1	inconclusive: 89.1 µM [inhibitor, partial curve]	
Cc1ccc(NC(=O)CNC(=O)c2cccc(C)c2)nc1		inactive: -16.1%
NNc1nnc(-c2ccccc2)c(-c2ccccc2)n1	inconclusive: 89.1 µM [inhibitor, partial curve]	
O=C(OCC(=O)C12CC3CC(CC(C3)C1)C2)c1ccc(O)cc1O	inconclusive: 35.5 µM [inhibitor, partial curve, poor fit]	

Compound	Potency	activity change, negative = inhibition
CC1CCN(CCCn2c(=S)[nH]c3c(sc4ccccc43)c2=O)CC1	inconclusive: 25.1 µM [inhibitor, full curve, poor fit]	
COc1cccc(NC(=O)c2nn(C)c(C(=O)Nc3cccc(OC)c3)c2[N+](=O)[O-])c1	inconclusive: 39.8 µM [inhibitor, partial curve]	
O=C(O)CN1C(=O)/C(=C\c2cccc(OCc3ccc(Cl)cc3)c2)SC1=S	inconclusive: 56.2 µM [inhibitor, partial curve]	
CCOC(=O)CCc1c(C)nc(SCC(=O)O)c(C#N)c1C	active: 25.1 µM	
Cc1ccc(C)n1-c1nnc(N2CCCC(C(=O)Nc3ccc(C(C)C)cc3)C2)s1 (stereo unspecified)		inactive: -16.1%
O=C1CCc2cc(S(=O)(=O)Nc3ccccn3)ccc2N1		inactive: -11.6%
COC(=O)c1ccc2ncccc2c1	inconclusive: 89.1 µM [inhibitor, single point]	
CCCn1c(-c2ccc(S(=O)(=O)N3CCOCC3)cc2)csc1=Nc1ccc(OCC)cc1	inconclusive: 12.6 µM [inhibitor, full curve]	
CCN1C(=O)N[C@@H](c2ccco2)C(C(=O)OC)=C1C	inconclusive: 15.8 µM [inhibitor, full curve, poor fit]	
CCCSCCCNC(=O)C1CCN(c2nn3cc(-c4ccc(F)cc4)nc3s2)CC1	inconclusive: 89.1 µM [inhibitor, partial curve]	
CCOC(=O)c1c(NC(C)=O)sc2c1CCC(C=O)=C2Sc1ccccc1	inconclusive: 44.7 µM [inhibitor, partial curve]	
Cc1c(C(=O)N2c3ccccc3Sc3ccccc32)cccc1[N+](=O)[O-]	inconclusive: 28.2 µM [inhibitor, full curve]	
N#Cc1c(N)oc(-c2ccco2)c1-c1ccco1	inconclusive: 79.4 µM [inhibitor, single point]	
COc1ccc(N2CCN(Cc3ccc(Br)s3)CC2)cc1	active: 3.55 µM	
C=CCOC(=O)C(C#N)c1nc2ccccc2nc1N1CCN(c2ccccc2OC)CC1 (stereo unspecified)	inconclusive: 25.1 µM [inhibitor, partial curve]	
COc1cc(OC)cc(C(=O)Nc2ccc3nc(N4CCCCC4)cc(C)c3c2)c1		inactive: -26.3%
COc1ccc(OC)c(NC(=O)N2CCN(S(=O)(=O)c3ccc4c(ccn4C)c3)CC2)c1	inconclusive: 50.1 µM [inhibitor, partial curve]	
COc1ccc(/C=N/NC(=O)/C(=C/c2ccccc2)CCO)cc1	active: 79.4 µM	
CC(=O)Nc1ccc(S(=O)(=O)Nc2ccc(Nc3ccccc3)cc2)cc1	inconclusive: 56.2 µM [inhibitor, partial curve, poor fit]	
CCOC(=O)C1CCCN(CC(=O)Nc2cccc(C(C)=O)c2)C1 (stereo unspecified)	active: 22.4 µM	
CCN(CC)CCCN(C(=O)c1cccc(C)c1)c1nc(-c2ccc(OC)cc2)cs1	inconclusive: 56.2 µM [inhibitor, partial curve]	
CN(C)c1ccc(/C=N/N(CCC(=O)NC(C)(C)C)C2=NS(=O)(=O)c3ccccc32)cc1		inactive: -7.38%
COc1ccccc1/C=C(/C(=O)OCC(=O)Nc1ccc(N(C)C)cc1)c1ccccc1	inconclusive: 50.1 µM [inhibitor, partial curve]	
COc1ccc(-c2nc3ccccc3c(=O)n2Cc2ccccc2)cc1CNc1ccc(NC(C)=O)cc1	active: 50.1 µM	

Compound	Potency	activity change, negative = inhibition
COc1ccccc1Cc1nc2ccccc2[nH]c1=O		inactive: -13%
O=C(NCCCCc1ccccc1)c1ccccc1Br		inactive: -1.28%
S=c1[nH]nc(COc2ccccc2)n1/N=C/c1ccc(Br)s1	active: 56.2 µM	
CC(=O)N1c2ccc(S(=O)(=O)N3CCCC3)cc2CC1C(=O)NCc1cccc(F)c1 (stereo unspecified)	inconclusive: 15.8 µM [inhibitor, full curve]	
Cc1cc(Cl)c(OCCn2ccnc2)c(Br)c1	active: 17.8 µM	
O=C(CN(Cc1ccccc1Cl)C(=O)c1csnn1)NCc1ccc(F)cc1		inactive: -7.27%
O=C(CN1C(=O)NC2(CCCC2)C1=O)OCc1cc(=O)n2cc(Br)ccc2n1	active: 50.1 µM	
COc1ccc(C(=O)NC(=S)Nc2ccc(Cl)c(C(=O)O)c2)cc1		inactive: -5.63%
Cc1ccc(N2CCN(C(=O)Nc3cccc([N+](=O)[O-])c3)CC2C)cc1 (stereo unspecified)	inconclusive: 44.7 µM [inhibitor, partial curve]	
Clc1cccc(-c2ccc(CNCc3ccccn3)o2)c1	active: 56.2 µM	
CC1CC(C)CN(Cc2nc(N)nc(Nc3ccccc3)n2)C1 (stereo unspecified)	inconclusive: 56.2 µM [inhibitor, partial curve]	
Cc1ccc(/C=N\NC(=O)CCc2n[nH]c(=O)[nH]c2=O)o1	active: 15.8 µM	
O=C(COC(=O)c1nc(Cl)c(Cl)c(Cl)c1Cl)c1ccc[nH]1		inactive: -17.2%
O=C(NCc1nnnn1-c1ccc(Cl)cc1)c1ccc(Br)o1		inactive: 2.74%
Cc1ccc(C(=O)N2CCCC2)c(F)c1F	inconclusive: 28.2 µM [inhibitor, partial curve]	
CCCCCCCCCCOC(=O)Cn1c(COc2ccccc2OC)[n+](C)c2ccccc21		inactive: -24.2%
CCCn1nc([N+](=O)[O-])c(C(C#N)c2nc3ccccc3o2)c(Cl)c1=O (stereo unspecified)	active: 56.2 µM	
COc1ccccc1N1CCN(C(=O)CN(C2CCCCC2)S(C)(=O)=O)CC1	inconclusive: 79.4 µM [inhibitor, single point]	
CSc1nc(SCC(=O)NCc2ccco2)c2c3c(sc2n1)COC(C)(C)C3	inconclusive: 79.4 µM [inhibitor, partial curve]	
COc1ccc(OC)c(-n2c(-c3ccc(S(C)(=O)=O)cc3)cc(C=O)c2C)c1		inactive: -20.8%
O=C(CCCN1C(=O)c2ccccc2C1=O)NC1=NCCS1	active: 31.6 µM	
CCOC(=O)c1cc2c(=O)n3ccccc3nc2n(CCCOC)c1=NC(=O)C(C)Oc1ccccc1 (stereo unspecified)		inactive: -18.1%
O=C(CSc1ncc(-c2ccc(F)cc2)n1Cc1ccco1)Nc1ccc2c(c1)OCO2	active: 44.7 µM	
